molecular target: Noro protease (Norovirus, UniProt Q83883); assay: Norovirus protease inhibition assay (Noro-Norwalk FRET protease assay); conditions: IC50 (μM), peptide substrate 10 μM, 90 minutes at 37° C., compounds 200 μM to 10.2 nM

Point of comparison: `CC(C)(c1cccc(Cl)c1)C(OC(=O)N[C@@H](CC1CCCCC1)C(=O)N[C@@H](C[C@@H]1CCNC1=O)C(=O)C(=O)NC1CC1)c1ccccc1Cl` (stereo partly drawn) [Compound C186, 1-(2-Chlorophenyl)-2-(3-chlorophenyl)-2-methylpropyl ((S)-3-cyclohexyl-1-(((S)-4-(cyclopropylamino)-3,4-dioxo-1-((S)-2-oxopyrrolidin-3-yl)butan-2-yl)amino)-1-oxopropan-2-yl) carbamate], IC50 30.8 µM. Against it:
- CC(C)(c1cccc(Cl)c1)[C@@H](OC(=O)N[C@@H](CC1CCCCC1)C(=O)N[C@@H](C[C@@H]1CCNC1=O)C(=O)C(=O)NC1CC1)c1cccc(F)c1 [Compound C184, (S)-2-(3-chlorophenyl)-1-(3-fluorophenyl)-2-methylpropyl ((S)-3-cyclohexyl-1-(((S)-4-(cyclopropylamino)-3,4-dioxo-1-((S)-2-oxopyrrolidin-3-yl)butan-2-yl)amino)-1-oxopropan-2-yl)carbamate] — 2.7-fold higher, 81.7 µM
- CC(C)(c1cccc(Cl)c1)[C@H](OC(=O)N[C@@H](CC1CCCCC1)C(=O)N[C@@H](C[C@@H]1CCNC1=O)C(=O)C(=O)NC1CC1)c1cccc(F)c1 [Compound C185, (R)-2-(3-chlorophenyl)-1-(3-fluorophenyl)-2-methylpropyl ((S)-3-cyclohexyl-1-(((S)-4-(cyclopropylamino)-3,4-dioxo-1-((S)-2-oxopyrrolidin-3-yl)butan-2-yl)amino)-1-oxopropan-2-yl)carbamate] — within 1.5-fold, 28.2 µM
- CC(C)C[C@H](NC(=O)OC(c1cccc(Cl)c1)C1(c2cccc(Cl)c2)CC1)C(=O)N[C@@H](C[C@@H]1CCNC1=O)C(=O)C(=O)NC1CC1 (stereo partly drawn) [Compound C187, (3-chlorophenyl)(1-(3-chlorophenyl)cyclopropyl)methyl ((S)-1-(((S)-4-(cyclopropylamino)-3,4-dioxo-1-((S)-2-oxopyrrolidin-3-yl)butan-2-yl)amino)-4-methyl-1-oxopentan-2-yl)carbamate] — 2.7-fold higher, 81.9 µM
- CC(C)(C)C(=O)N1CCC2(CC1)CC(CC(NC(=O)[C@H](CC1CCCCC1)NC(=O)OCc1cccc(Cl)c1)C(=O)C(=O)NC1CC1)C(=O)N2 (stereo partly drawn) [Compound C188, 3-Chlorobenzyl ((2S)-3-cyclohexyl-1-((4-(cyclopropylamino)-3,4-dioxo-1-(2-oxo-8-pivaloyl-1,8-diazaspiro[4.5]decan-3-yl)butan-2-yl)amino)-1-oxopropan-2-yl)carbamate] — 1.5-fold higher, 46.6 µM
- CS(=O)(=O)N1CCC2(CC1)CC(CC(C=O)NC(=O)[C@H](CC1CCCCC1)NC(=O)OC1CCCC1Cc1cccc(Cl)c1)C(=O)N2 (stereo partly drawn) [Compound C189, 2-(3-Chlorobenzyl)cyclopentyl ((2S)-3-cyclohexyl-1-((1-(8-(methylsulfonyl)-2-oxo-1,8-diazaspiro[4.5]decan-3-yl)-3-oxopropan-2-yl)amino)-1-oxopropan-2-yl)carbamate] — 9.3-fold lower, 3.3 µM
- COc1cccc2[nH]c(C(=O)N[C@@H](CC3CCCCC3)C(=O)NC(CC3CC4(CCOCC4)NC3=O)C(=O)C(=O)NC3CC3)cc12 (stereo partly drawn) [Compound C191, N-((2S)-3-Cyclohexyl-1-((4-(cyclopropylamino)-3,4-dioxo-1-(2-oxo-8-oxa-1-azaspiro[4.5]decan-3-yl)butan-2-yl)amino)-1-oxopropan-2-yl)-4-methoxy-1H-indole-2-carboxamide] — 3-fold higher, 91.9 µM
- O=C(N[C@@H](CC1CCCCC1)C(=O)NC(CC1CC2(CCCCC2)NC1=O)C(=O)C(=O)NC1CC1)OC1CCCC1Cc1cccc(Cl)c1 (stereo partly drawn) [Compound C192, 2-(3-Chlorobenzyl)cyclopentyl ((2S)-3-cyclohexyl-1-((4-(cyclopropylamino)-3,4-dioxo-1-(2-oxo-1-azaspiro[4.5]decan-3-yl)butan-2-yl)amino)-1-oxopropan-2-yl)carbamate] — within 1.5-fold, 27.7 µM
- COc1cccc2[nH]c(C(=O)N[C@@H](CC3CCCCC3)C(=O)NC(C=O)CC3CC4(CCCCC4)NC3=O)cc12 (stereo partly drawn) [Compound C193, N-((2S)-3-Cyclohexyl-1-oxo-1-((1-oxo-3-(2-oxo-1-azaspiro[4.5]decan-3-yl)propan-2-yl)amino)propan-2-yl)-4-methoxy-1H-indole-2-carboxamide] — 8.1-fold lower, 3.8 µM
- CC(C)C[C@H](NC(=O)OC1(Cc2ccccc2)CCC1)C(=O)N[C@@H](C[C@@H]1CCNC1=O)C(=O)CCl [Compound C194, 1-Benzylcyclobutyl ((S)-1-(((S)-4-chloro-3-oxo-1-((S)-2-oxopyrrolidin-3-yl)butan-2-yl)amino)-4-methyl-1-oxopentan-2-yl) carbamate] — higher, > 200 µM
- O=C(N[C@@H](CC1CCCCC1)C(=O)NC(CC1CC2(CCCCC2)NC1=O)C(=O)C(=O)NC1CC1)OC(Cc1cccc(Cl)c1)c1cccc(Cl)c1 (stereo partly drawn) [Compound C195, 1,2-Bis(3-chlorophenyl)ethyl ((2S)-3-cyclohexyl-1-((4-(cyclopropylamino)-3,4-dioxo-1-(2-oxo-1-azaspiro[4.5]decan-3-yl)butan-2-yl)amino)-1-oxopropan-2-yl)carbamate] — higher, > 200 µM
- CC(C)C[C@H](NC(=O)OC1CCCC1Cc1cccc(Cl)c1)C(=O)N[C@@H](C[C@@H]1CCNC1=O)C(=O)C(=O)NC1CC1 (stereo partly drawn) [Compound C196, 2-(3-Chlorobenzyl)cyclopentyl ((S)-1-(((S)-4-(cyclopropylamino)-3,4-dioxo-1-((S)-2-oxopyrrolidin-3-yl)butan-2-yl)amino)-4-methyl-1-oxopentan-2-yl)carbamate] — within 1.5-fold, 26.3 µM
- O=C(N[C@@H](CC1CCCCC1)C(=O)N[C@@H](CC1CC2(CCCCC2)NC1=O)C(=O)CCl)OCc1cccc(Cl)c1 (stereo partly drawn) [Compound C197, 3-Chlorobenzyl ((2S)-1-(((2S)-4-chloro-3-oxo-1-(2-oxo-1-azaspiro[4.5]decan-3-yl)butan-2-yl)amino)-3-cyclohexyl-1-oxopropan-2-yl)carbamate] — 5-fold higher, 155 µM
- CC1(C)CC(CC(C=O)NC(=O)[C@H](CC2CCCCC2)NC(=O)OCc2cccc(Cl)c2)C(=O)N1 (stereo partly drawn) [Compound C198, 3-chlorobenzyl ((2S)-3-cyclohexyl-1-((1-(5,5-dimethyl-2-oxopyrrolidin-3-yl)-3-oxopropan-2-yl)amino)-1-oxopropan-2-yl)carbamate] — 9.3-fold lower, 3.3 µM
- CC(C)C[C@H](NC(=O)OC1CCCC1Cc1ccccc1)C(=O)N[C@@H](C[C@@H]1CCNC1=O)C(=O)CCl (stereo partly drawn) [Compound C199, 2-Benzylcyclopentyl ((S)-1-(((S)-4-chloro-3-oxo-1-((S)-2-oxopyrrolidin-3-yl)butan-2-yl)amino)-4-methyl-1-oxopentan-2-yl)carbamate] — 3-fold higher, 92.8 µM
- O=C[C@H](CC1CC2(CCOCC2)NC1=O)NC(=O)[C@H](CC1CCCCC1)NC(=O)OCc1cccc(Cl)c1 (stereo partly drawn) [Compound C200, 3-Chlorobenzyl ((2S)-3-cyclohexyl-1-oxo-1-(((2S)-1-oxo-3-(2-oxo-8-oxa-1-azaspiro[4.5]decan-3-yl)propan-2-yl)amino)propan-2-yl)carbamate] — 26-fold lower, 1.2 µM
- CC(C)C[C@H](NC(=O)OC(c1ccc(Cl)cc1)C1(c2cccc(Cl)c2)CC1)C(=O)N[C@@H](C[C@@H]1CCNC1=O)C(=O)C(=O)NC1CC1 (stereo partly drawn) [Compound C201, (4-Chlorophenyl)(1-(3-chlorophenyl)cyclopropyl) methyl ((S)-1-(((S)-4-(cyclopropylamino)-3,4-dioxo-1-((S)-2-oxopyrrolidin-3-yl)butan-2-yl)amino)-4-methyl-1-oxopentan-2-yl) carbamate] — 11-fold lower, 2.7 µM
- CC(C)(C)C(=O)N1CCC2(CC1)CC(CC(C=O)NC(=O)[C@H](CC1CCCCC1)NC(=O)OC1CCCC1Cc1cccc(Cl)c1)C(=O)N2 (stereo partly drawn) [Compound C202, 2-(3-Chlorobenzyl) cyclopentyl ((2S)-3-cyclohexyl-1-oxo-1-((1-oxo-3-(2-oxo-8-pivaloyl-1,8-diazaspiro[4.5]decan-3-yl)propan-2-yl)amino)propan-2-yl)carbamate] — 4.2-fold lower, 7.3 µM
- CC(C)C[C@H](NC(=O)OC(c1cccc(Cl)c1)C1(c2cccc(Cl)c2)CC1)C(=O)N[C@H](C=O)C[C@@H]1CCNC1=O (stereo partly drawn) [Compound C203, (3-chlorophenyl)(1-(3-chlorophenyl)cyclopropyl)methyl ((S)-4-methyl-1-oxo-1-(((S)-1-oxo-3-((S)-2-oxopyrrolidin-3-yl)propan-2-yl)amino)pentan-2-yl)carbamate] — 21-fold lower, 1.5 µM
- CC(C)C[C@H](NC(=O)OC1(Cc2cccc(Cl)c2)CCC1)C(=O)NC(C=O)CC1CC2(CCOCC2)NC1=O (stereo partly drawn) [Compound C204] — 17-fold lower, 1.8 µM
- CC1(C)CC(CC(NC(=O)[C@H](CC2CCCCC2)NC(=O)OC(c2cccc(F)c2)C(C)(C)c2cccc(Cl)c2)C(=O)C(=O)NC2CC2)C(=O)N1 (stereo partly drawn) [Compound C205, 2-(3-Chlorophenyl)-1-(3-fluorophenyl)-2-methylpropyl ((2S)-3-cyclohexyl-1-((4-(cyclopropylamino)-1-(5,5-dimethyl-2-oxopyrrolidin-3-yl)-3,4-dioxobutan-2-yl)amino)-1-oxopropan-2-yl)carbamate] — 6-fold higher, 184 µM
- O=C(N[C@@H](CC1CCCCC1)C(=O)NC(CC1CC2(CCOCC2)NC1=O)C(=O)C(=O)NC1CC1)OC1CCCC1Cc1cccc(Cl)c1 (stereo partly drawn) [Compound C206, 2-(3-Chlorobenzyl)cyclopentyl ((2S)-3-cyclohexyl-1-((4-(cyclopropylamino)-3,4-dioxo-1-(2-oxo-8-oxa-1-azaspiro[4.5]decan-3-yl)butan-2-yl)amino)-1-oxopropan-2-yl)carbamate] — 2.5-fold higher, 76.3 µM
- CC(C)C[C@H](NC(=O)OC(c1ccccc1)C(C)(C)c1cccc(Cl)c1)C(=O)N[C@@H](C[C@@H]1CCNC1=O)C(=O)C(N)=O (stereo partly drawn) [Compound C207, 2-(3-Chlorophenyl)-2-methyl-1-phenylpropyl ((S)-1-(((S)-4-amino-3,4-dioxo-1-((S)-2-oxopyrrolidin-3-yl)butan-2-yl)amino)-4-methyl-1-oxopentan-2-yl)carbamate] — 3.4-fold higher, 106 µM
- CC(C)C[C@H](NC(=O)OC(c1ccccc1)C(C)(C)c1cccc(Cl)c1)C(=O)N[C@@H](C[C@@H]1CCNC1=O)C(=O)CCl (stereo partly drawn) [Compound C209, 2-(3-Chlorophenyl)-2-methyl-1-phenylpropyl ((S)-1-(((S)-4-chloro-3-oxo-1-((S)-2-oxopyrrolidin-3-yl)butan-2-yl)amino)-4-methyl-1-oxopentan-2-yl)carbamate] — 2.9-fold higher, 88 µM

Reference: patent US20230159453A1 (COCRYSTAL PHARMA, INC., priority 2020, published 2023)
